Test results taken from PubChem BioAssay (NCATS).
“And” between values parts separate entries of the source, which are not always exact repeats. Identical values can stand only once. This list was built around the results that the source calls inconclusive (neither active nor inactive); the mix of calls is not that of the screen. For some assays here: A potency beside an inconclusive call is a rough fit, not a confirmed value. The source made the active and inactive calls. Calls come from the whole dose curve; as a rule, active = well fitted curve in the direction sought with a large enough effect; inconclusive = small, poorly fitted or top-dose-only effect, or another doubt; inactive = no such curve, though single readings can be large; an effect the other way counts as inactive or inconclusive.

How the values were obtained:
[1] = NS1 protein of Zika virus - qHTS assay to identify small molecule inhibitors in human HEK 293 cells (AID 1347053); note: nearly all actives have a fitted effect of over 55% in size
Procedure, shortened: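 TR-FRET signal from two anti-ZIKV NS1 antibodies quantified NS1 in HEK 293 cells 24 h after MR766 infection at MOI = 0.5; compounds were added 1 h before virus. Uninfected cells and infected cells defined the NS1 normalization range.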

[2] = qHTS of pediatric cancer cell lines to identify multiple opportunities for drug repurposing: Primary screen for BT-37 cells (AID 1347094)
Procedure, shortened: (§1)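 Phenotypic viability qHTS, 48 h compound exposure, CellTiter-Glo luminescence read-out; multi-concentration dosing so that potency and efficacy derive directly from the primary screen's curves.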

[3] = qHTS of pediatric cancer cell lines to identify multiple opportunities for drug repurposing: Primary screen for MG 63 (6-TG R) cells (AID 1347105); conditions: MG 63 (6-TG R) viability, CellTiter-Glo, 48 h; activity change, negative = cytotoxic: at 46 µM (top of the series) unless noted; note: nearly all actives have a fitted effect of over 50% in size
Procedure, shortened: as §1

[4] = qHTS of pediatric cancer cell lines to identify multiple opportunities for drug repurposing: Primary screen for control Hh wild type fibroblast cells (AID 1347106); note: nearly all actives have a fitted effect of over 55% in size
Procedure, shortened: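 Cells (500-1,000/well) in growth media were settled 5 h at 37 degrees C, then given compounds for 48 h. Viability was read as CellTiter-Glo luminescence. Primary runs used MIPE at 11 points (0.78 nM-46 µM) and NPC at 8 points (0.59 nM-46 µM); follow-ups used 11 points.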

[5] = qHTS of pediatric cancer cell lines to identify multiple opportunities for drug repurposing: Confirmatory screen for DAOY cells (AID 1347114); note: nearly all actives have a fitted effect of over 65% in size
Procedure, shortened: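 Viability measured as metabolically active cells via CellTiter-Glo luminescence following 48 hours of compound exposure, 11-point dilutions in confirmatory testing. 500-1,000 cells/well plated 5 hours before dosing; controls were DMSO and 2.3 µM bortezomib.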

[6] = Quantitative High-Throughput drug screen in 47 multiple myeloma cell lines against the NCATS MIPE library collection: KMM1_JCRB cell viability assay (AID 1918960); note: nearly all actives have a fitted effect of over 30% in size
Procedure, shortened: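 500 cells/well; MIPE 4.0 library pinned in; 48 h, 37 °C, 5% CO2; CellTiter-Glo ATP luminescence. Controls: DMSO = 100% viability, medium only = 0%.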

[7] = Quantitative High-Throughput drug screen in 47 multiple myeloma cell lines against the NCATS MIPE library collection: KMS21BM_JCRB cell viability assay (AID 1918974); conditions: ATP luminescence, 48 h; viability: at 45.8 µM (top of the series)
Procedure, shortened: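 Relative luminescence from CellTiter-Glo served as the viability signal, referenced to DMSO-treated (100%) and cell-free medium (0%) controls. Treatment lasted 48 hours at 37C with 500 cells per well.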

[8] = Quantitative High-Throughput drug screen in 47 multiple myeloma cell lines against the NCATS MIPE library collection: MOLP8_DSMZ cell viability assay (AID 1918977); conditions: MOLP8 myeloma viability, CellTiter-Glo ATP luminescence, 48 h; viability (% of control): at 45.8 µM (top of the series); note: nearly all actives have a fitted effect of over 45% in size
Procedure, shortened: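 Cells were exposed to library compounds for 48 hours, after which ATP was measured by CellTiter-Glo. Signal was taken as median relative luminescence units.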

MKL-1 = test: qHTS assay to identify novel small-molecules to repurpose for Merkel cell carcinoma treatment (AID 1296009); conditions: MCC and control cell lines, CellTiter-Glo viability, 72 h; activity change, negative = cytotoxicity: at 46 µM (top of the series); note: nearly all actives have a fitted effect of over 60% in size; for activity change, negative = cytotoxicity: % is set by controls: 0 for no effect and ±100 for the full control effect
Procedure, shortened: (§2)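 Dose-response viability screen; 72 hr exposure at 37 degree celsius; CellTiter-Glo added, 10 min room temperature, luminescence read; RLUs scaled between no-cell and DMSO wells.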

[9] = system: Zika virus NS2B-NS3 protease (linked construct); test: Primary screen NINDS Rhodamine qHTS for Zika virus inhibitors (AID 1347160); note: nearly all actives have a fitted effect of over 55% in size; for activity change, negative = inhibition: % is set by controls: 0 for no effect and ±100 for the full control effect
Procedure, shortened: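 Enzyme (25 nM, linked NS2B-NS3) was preincubated 15 min with compound in 10 mM Tris-HCl pH 8.0, 0.01% Tween 20. Rhodamine110 substrate (1.5 microM) was then added and fluorescence read at start and after 15 min.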

[10] = target: Calcium and integrin-binding protein 1 (Homo sapiens) (UniProt Q99828); test: Primary qHTS for Identification of Calcium Integrin Binding Protein 1 (CIB1) Competitor (AID 1508620);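 for activity change, negative = inhibition: GST tagged CIB1 binding a fluorescein labelled alphaIIb integrin peptide tracer; top concentration of the series differs between compounds; % is set by controls: 0 for no effect and ±100 for the full control effect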
Procedure, shortened: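 Fluorescence polarization competition: GST-tagged CIB1 (1 uM final) preincubated with compound 15 min at room temperature, then FITC-labelled alphaIIb peptide (100 nM final) added. After 15 min at room temperature, polarization read at Ex 480/Em 540.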

[11] = P-glycoprotein substrates identified in KB-3-1 adenocarcinoma cell line, qHTS therapeutic library screen (AID 1346986); conditions: KB-3-1 parental cells viability, CellTiter-Glo, 72 h;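 note: potency is for cytotoxicity meaning loss of cell viability; nearly all actives have a fitted effect of over 60% in size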
Procedure, shortened: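 In 1536-well format, 500 cells/well received pinned compound titrations and were incubated 72 h, 5% CO2. Viability was read by CellTiter-Glo; cytotoxic if AC50 < 10 uM and efficacy >50%.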

[12] = qHTS of pediatric cancer cell lines to identify multiple opportunities for drug repurposing: Primary screen for Saos-2 cells (AID 1347097); conditions: Saos-2 viability, CellTiter-Glo ATP luminescence, 48 h; activity change, negative = cytotoxic: at 46 µM (top of the series); note: nearly all actives have a fitted effect of over 40% in size
Procedure, shortened: as §1

[13] = qHTS of pediatric cancer cell lines to identify multiple opportunities for drug repurposing: Primary screen for NB1643 cells (AID 1347099); note: nearly all actives have a fitted effect of over 50% in size
Procedure, shortened: as §1

[14] = qHTS of pediatric cancer cell lines to identify multiple opportunities for drug repurposing: Primary screen for RD cells (AID 1347104); note: nearly all actives have a fitted effect of over 55% in size
Procedure, shortened: as §1

MKL-2 = test: qHTS assay to identify novel small-molecules to repurpose for Merkel cell carcinoma treatment (AID 1296009); conditions: MCC and control cell lines, CellTiter-Glo viability, 72 h; activity change, negative = cytotoxicity: at 46 µM (top of the series); note: nearly all actives have a fitted effect of over 60% in size; for activity change, negative = cytotoxicity: % is set by controls: 0 for no effect and ±100 for the full control effect
Procedure, shortened: as §2

[15] = Primary qHTS for small molecule stabilizers of the endoplasmic reticulum resident proteome: Secreted ER Calcium Modulated Protein (SERCaMP) assay (AID 1508630); conditions: SH-SY5Y GLuc-SERCaMP (Gaussia luciferase released on ER calcium loss) secretion, thapsigargin, luminescence; activity change, negative = inhibition: at 38.4 µM (top of the series)
Procedure, shortened: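 The SH-SY5Y reporter protocol was run at 3 concentrations up to 38.3 uM (primary) or 11 concentrations (follow-up): 16 h compound, 100 nM thapsigargin for 4 h, then extracellular luciferase luminescence.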

MCC-26 = test: qHTS assay to identify novel small-molecules to repurpose for Merkel cell carcinoma treatment (AID 1296009); conditions: MCC and control cell lines, CellTiter-Glo viability, 72 h; series mostly up to 46 µM; note: nearly all actives have a fitted effect of over 60% in size
Procedure, shortened: as §2
Potency is the fitted concentration of half-maximal effect; tags give direction and shape of the fitted curve.

Chain of UniProt Q99828 (Q99828 whole entry, looked up): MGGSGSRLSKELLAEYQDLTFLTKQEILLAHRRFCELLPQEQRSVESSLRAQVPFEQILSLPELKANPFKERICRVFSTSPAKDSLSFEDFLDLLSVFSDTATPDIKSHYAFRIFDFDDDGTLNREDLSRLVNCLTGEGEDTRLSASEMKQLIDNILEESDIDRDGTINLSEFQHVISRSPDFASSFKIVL

Cn1cc(-c2cnn3c(N)c(Br)c([C@H]4CCCNC4)nc23)cn1
Potency [1]: active: 0.833 µM
Potency [2]: active: 0.685 µM
Potency [3]: inconclusive: 0.372 µM [cytotoxic, full curve]
Potency [4]: inconclusive: 1.66 µM [cytotoxic, full curve]
Potency [5]: inconclusive: 32.9 µM [cytotoxic, single point]
Potency [6]: active: 0.372 µM
Potency [7]: active: 0.833 µM
Potency [8]: active: 0.833 µM
Potency (MKL-1): inconclusive: 14.8 µM [inhibitor, partial curve]

CC(=O)Nc1nc(C)c(-c2nc(N3CCCC(O)C3)no2)s1 (centres undefined)
Potency [9]: inactive
Potency [10]: inactive

CC(C)n1nc(C#Cc2ccccc2)c2c(N)ncnc21
Potency [11]: active: 14.6 µM

CCn1c(=O)c(-c2ccc(-c3cncs3)cc2Cl)cc2cnc(Nc3ccc(N4CCN(C)CC4)cc3)nc21
Potency [11]: inconclusive: 4.11 µM [inhibitor, full curve]
Potency [9]: inconclusive: 0.316 µM [inhibitor, full curve, poor fit]

Cc1c(NC(=O)OC[C@@H]2COCCN2)cn2ncnc(Nc3ccc4c(cnn4Cc4cccc(F)c4)c3)c12
Potency [1]: inconclusive: 16.6 µM [inhibitor, partial curve, poor fit]
Potency [2]: inconclusive: 27.3 µM [cytotoxic, single point]
Potency [12]: inconclusive: 29.6 µM [cytotoxic, partial curve]
Potency [13]: inconclusive: 0.469 µM [cytotoxic, full curve]
Potency [14]: inconclusive: 2.09 µM [cytotoxic, full curve, poor fit]
Potency [5]: active: 20.8 µM
Potency [6]: active: 14.8 µM
Potency [8]: inconclusive: 20.9 µM [cytotoxic, partial curve, poor fit]
Potency (MKL-1): inactive
Potency (MKL-2): inconclusive: 29.6 µM [inhibitor, partial curve, poor fit]

CCOc1cc(C(C)(C)C)ccc1C1=N[C@@](C)(c2ccc(Cl)cc2)[C@@](C)(c2ccc(Cl)cc2)N1C(=O)N1CCN(CC(=O)N2CCOCC2)CC1
Potency [10]: inconclusive: 50.1 µM [inhibitor, partial curve, poor fit]

COc1cc(N2CCN(C(C)=O)CC2)ccc1Nc1ncc(Cl)c(Nc2ccc(N3CCN(C(C)=O)CC3)cc2OC)n1
Potency [11]: active: 14.6 µM
Potency [9]: inactive

C=C1C(=O)O[C@@H]2[C@H]1[C@H](O)C[C@]1(C)[C@@H](O)CC=C(C)[C@@H]21
Potency [10]: inconclusive: 20 µM [inhibitor, partial curve, poor fit]

OCCN1CCN(CC/C=C2/c3ccccc3Sc3ccc(C(F)(F)F)cc32)CC1
Potency [1]: inconclusive: 35.5 µM [inhibitor, single point]
Potency [2]: inconclusive: 24.6 µM [cytotoxic, single point]
Potency [13]: inconclusive: 33.5 µM [cytotoxic, single point]
Potency [3]: inconclusive: 21.1 µM [cytotoxic, partial curve]
Potency (MKL-1): inconclusive: 26.6 µM [inhibitor, single point]
Potency (MKL-2): inconclusive: 18.8 µM [inhibitor, single point]

Cc1cccc(C)c1-n1c(=O)c2cnc(Nc3ccc(N4CCN(C)CC4)cc3)nc2n2c3ccccc3nc12
Potency [10]: inconclusive: 56.2 µM [inhibitor, partial curve, poor fit]

CC(=O)c1ccc2c(c1)N(CCCN(C)C)c1ccccc1S2
activity change, negative = cytotoxic [3]: inconclusive: -36.6% [cytotoxic]
Potency [15]: inconclusive: 25.1 µM [inhibitor, single point] and inconclusive: 10 µM [inhibitor, partial curve, poor fit]
activity change, negative = cytotoxicity (MKL-2): inconclusive: -32% [inhibitor]

Cc1ccc2c(Br)cc(Br)c(O)c2n1
Potency [12]: inconclusive: 13.3 µM [cytotoxic, partial curve]
Potency [3]: active: 13.3 µM
Potency [15]: inconclusive: 28.2 µM [inhibitor, single point]
Potency (MCC-26): inconclusive: 11.9 µM [inhibitor, partial curve]
Potency (MKL-2): active: 5.96 µM

C[C@]12CCC(=O)C=C1C=C[C@@H]1[C@@H]2CC[C@@]2(C)[C@H]1CC[C@@]21CCC(=O)O1
activity change, negative = cytotoxic [12]: inconclusive: -33.2% [cytotoxic]
Potency [13]: inconclusive: 23.7 µM [cytotoxic, single point]
Potency [15]: inconclusive: 28.2 µM [inhibitor, single point]
Potency (MKL-1): inactive

COc1cc2ncnc(Nc3cccc(I)c3)c2cc1OC
Potency [11]: active: 6.51 µM

COc1cc(N2CCC(N3CCN(C)CC3)CC2)ccc1Nc1ncc(Cl)c(-c2c[nH]c3ccccc23)n1
Potency [10]: inconclusive: 50.1 µM [inhibitor, partial curve, poor fit]

CC(=O)Nc1ccn(C2COC(COC(=O)c3ccccc3)O2)c(=O)n1 (centres undefined)
Potency [2]: inconclusive: 17.4 µM [cytotoxic, partial curve]
Potency [12]: inactive
Potency [13]: inconclusive: 2.66 µM [cytotoxic, partial curve]
Potency [9]: inactive
Potency [15]: inconclusive: 31.6 µM [inhibitor, partial curve, poor fit]

C=C1C(=O)O[C@@H]2C3=C(C)CCC[C@]3(C)CC[C@@]12O
Potency [10]: inconclusive: 50.1 µM [inhibitor, partial curve, poor fit]

OCc1c[nH]c2ccccc12
Potency [13]: inconclusive: 21.7 µM [cytotoxic, single point]
Potency [14]: inconclusive: 34.4 µM [cytotoxic, partial curve]
Potency [15]: inconclusive: 39.8 µM [inhibitor, single point]
Potency (MKL-1): inconclusive: 38.6 µM [inhibitor, single point]
